From PubChem BioAssay AID686979 (National Center for Advancing Translational Sciences (NCATS), 2013)
Among all 420,000 compounds or so, about 50,000 (12%) were called active. Inconclusive means that the source gave no clear call. Such entries were picked first, then a sample of the others. Calls come from the whole dose curve; as a rule, active = well fitted inhibition curve with a large enough effect; inconclusive = small, poorly fitted or top-dose-only effect; inactive = flat fitted curve, though single readings scatter. No potency is given beside an inconclusive call; the fits are too rough.

assay: qHTS for Inhibitors of human tyrosyl-DNA phosphodiesterase 1 (TDP1): qHTS in cells in presence of CPT; details: chicken DT40 Tdp1-/-;hTDP1 cells + 20 nM CPT, ATP luminescence, 48 h; activity change, negative = growth inhibition: at 46.2 µM (top of the series); note: nearly all actives have a fitted effect of over 55% in size
In short: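 Chicken DT40 Tdp1-/- cells complemented with human TDP1, 400 cells/well, exposed to compounds plus 20 nM camptothecin for at least 48 h at 37 C; viability read as ATP content by CellTiter-Glo luminescence.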
% is set by controls: 0 for no effect and ±100 for the full control effect; potency is the fitted concentration of half-maximal effect; tags give direction and shape of the fitted curve.

| SMILES | activity change, negative = growth inhibition | Potency |
| --- | --- | --- |
| C=CCc1ccc(OCC(O)CN2CCc3ccccc3C2)c(OC)c1 (stereo not drawn) | inactive: -24.5% | – |
| Cn1cc(C(=O)NC2CCCCC2)c(=O)c2cc(S(=O)(=O)N3CCCC3)ccc21 | – | inconclusive [inhibitor, single point] |
| O=C(Nc1cccc2ncccc12)c1ccc(-c2ccc(Cl)cc2Cl)o1 | – | active: 20.6 µM |
| CCOc1ccc(NC(=O)CN(C)C(=O)c2ccc(COc3ccccc3)cc2)cc1OCC | – | inconclusive [inhibitor, single point] |
| Cc1cn2c(=O)cc(COC(=O)c3cccc(NC(=O)COc4ccccc4)c3)nc2s1 | – | inconclusive [inhibitor, partial curve] |
| COc1cc(CC(=O)OCC(=O)Nc2ccc3c(c2)OCO3)cc(OC)c1OC | inactive: -18.4% | – |
| CCN(c1ccccc1)S(=O)(=O)c1cccc(C(=O)NCCN2CCOCC2)c1 | inactive: -6.88% | – |
| COC(=O)C1CCN(Cc2ccc(OCCCN3CCN(c4ccc([N+](=O)[O-])cc4)CC3)cc2)CC1 | – | active: 7.31 µM |
| CCOP(=O)(OCC)C(NC(=O)Nc1ccc(Cl)cc1)C(=O)N(CC)CC (stereo not drawn) | inactive: -10.6% | – |
| COc1ccc(C(=O)C2CCCN(C(=O)c3ccccc3C(C)=O)C2)cc1F (stereo not drawn) | – | inconclusive [inhibitor, single point] |
| COc1ccc(OC)c(NC(=O)c2oc3c(c2C)-c2nn(Cc4ccc(Cl)cc4)cc2CC3)c1 | – | inconclusive [inhibitor, single point] |
| Cn1nc(-c2ccc(C(=O)Nc3cccnc3)cc2)c2ccccc2c1=O | inconclusive: -32.8% [inhibitor] | – |
| CCC(C)[C@H](NC(=O)[C@@H]1Cc2ccccc2CN1)C(=O)NCc1ccc(OC)cc1 (stereo partly drawn) | – | inconclusive [inhibitor, partial curve, poor fit] |
| CCOC(=O)Nc1ccc2c(c1)C(=NNC(N)=S)c1ccccc1-2 | – | active: 6.51 µM |
| CCOC(=O)c1cnc(-n2nc(C)cc2C)nc1Nc1ccc(O)cc1 | – | active: 2.31 µM |
| O=C(CSc1nc(Nc2ccccc2)nc(N2CCOCC2)n1)Nc1cc(Cl)ccc1O | – | active: 25.9 µM |
| Cc1cc(N2CCN(S(=O)(=O)c3ccccc3)CC2)c2ccccc2n1 | – | active: 16.4 µM |
| CCCCSc1nc(CCC)cc(=O)[nH]1 | – | inconclusive [inhibitor, single point] |
| O=c1[nH]nc(SCc2nnc(-c3cccc(Cl)c3)o2)n1C1CCCCC1 | – | inconclusive [inhibitor, partial curve] |
| COc1cc(OC)cc(-c2cc3nc(C4CCN(C(=O)OC(C)(C)C)CC4)cc(=O)n3[nH]2)c1 | inconclusive: -35.7% [inhibitor] | – |
| CCOc1ccc(S(=O)(=O)N(CC(=O)Nc2cccnc2)c2ccc(F)cc2)cc1 | – | inconclusive [inhibitor, single point] |
| O=C(Nc1ccc(F)cc1F)c1cccc(S(=O)(=O)N2CCCCC2)c1 | – | inconclusive [inhibitor, single point] |
| COc1cc(NC(=O)Nc2nc(C(N)CCc3ccccc3)cs2)cc(OC)c1OC (stereo not drawn) | – | inconclusive [inhibitor, single point] |

| SMILES | activity change, negative = growth inhibition | Potency |
| --- | --- | --- |
| CCOc1cccc2sc(N(CCN(C)C)C(=O)CCS(=O)(=O)c3ccccc3)nc12 | – | inconclusive [inhibitor, single point] |
| CN(C)c1ccc(-c2ccnc3c2CC(C)(C(=O)NCC2CC2)O3)cc1 (stereo not drawn) | – | active: 5.17 µM |
| Cc1ccc2c(CC(=O)N3CCN(c4cccc(Cl)c4)CC3)coc2c1C | – | inconclusive [inhibitor, single point] |
| CCOc1ccc(N2C(=O)CC(N(CCc3ccc(OC)c(OC)c3)C(=S)Nc3ccccc3)C2=O)cc1 (stereo not drawn) | – | inconclusive [inhibitor, single point] |
| Cc1ccc(C(=O)NNC(=S)NC(=O)c2ccco2)cc1 | – | active: 7.31 µM |
| CCC(=O)Nc1c(C#N)c2nc3ccccc3nc2n1-c1ccc(C)cc1 | inactive: -6.96% | – |
| CN1CCN(S(=O)(=O)c2ccc(SCCOc3ccccc3)nc2)CC1 | – | inconclusive [inhibitor, single point] |
| Cc1ccc(-c2nc3ccccc3n3nnnc23)cc1 | – | active: 13 µM |
| COc1ccc(NC(=O)CCCC(=O)OCC(=O)c2cccc(OC)c2)cc1 | inactive: 3.96% | – |
| O=C1NC(=S)S/C1=C\c1coc2ccc(O)cc2c1=O | inactive: -2.02% | – |
| CN1CCN(C(=O)c2ccc(CSc3ccc(Cl)cc3)cc2)CC1 | – | active: 20.6 µM |
| Cc1ncoc1C(=O)N1CCCC(C(=O)c2ccc(-c3ccccc3)c(F)c2)C1 (stereo not drawn) | – | inconclusive [inhibitor, single point] |
| C=CC[C@H](CC(=O)N(CCO)Cc1ccccc1)C(=O)N[C@@H](COC(=O)[C@@H](CC=C)Cc1ccc(F)cc1)Cc1c[nH]c2ccccc12 | – | active: 16.4 µM |
| COc1ccccc1CNc1nc(NCCOc2ccccc2)c2sccc2n1 | – | active: 5.8 µM |
| CCOC(=O)c1cc(-c2cccnc2)nn1-c1ccccc1C | – | inconclusive [inhibitor, single point] |
| COC(=O)c1c(NC(NC(=O)CC(C)C)C(Cl)(Cl)Cl)sc2c1CCC2 (stereo not drawn) | – | inconclusive [inhibitor, single point] |
| O=c1[nH]c(-c2ccccc2)ncc1OCc1ccccc1 | – | active: 13 µM |
| COc1ccc(C(=O)C[n+]2cccc3cc(Cl)ccc32)cc1 | – | inconclusive [inhibitor, single point] |
| COC(=O)c1ccc(COC(=O)Cc2n[nH]c(=O)c3ccccc23)cc1 | – | inconclusive [inhibitor, partial curve, poor fit] |
| O=c1c2ccccc2sc2c(CO)ccc(NCCN3CCCCC3)c12 | – | active: 0.411 µM |
| CCn1ncc(/C=N\NC(=O)c2cc(-c3ccc(C)cc3C)nc3ccccc23)c1C | – | inconclusive [inhibitor, single point] |
| COCCN(Cc1ccco1)C(=O)c1cc2c(Cl)nc3ccc(C)cc3c2s1 | – | inconclusive [inhibitor, partial curve] |
| CCCc1nc2ccc(C)cn2c1Cc1cccc(Cl)c1 | – | inconclusive [inhibitor, single point] |

| SMILES | activity change, negative = growth inhibition | Potency |
| --- | --- | --- |
| CCOc1ccccc1N(CC(=O)Nc1ccccc1)S(=O)(=O)c1ccccc1 | – | inconclusive [inhibitor, single point] |
| O=C(c1ccc2c(=O)n(Cc3ccccc3)c(=S)[nH]c2c1)N1CCOCC1 | inactive: -19.7% | – |
| CCN(CC)S(=O)(=O)c1cc(NS(=O)(=O)c2c(Cl)cccc2Cl)ccc1C | – | inconclusive [inhibitor, single point] |
| COc1ccc(NC(=O)Cn2nc(SC)c(S(=O)(=O)c3ccc(C)cc3)c2N)cc1OC | inactive: -7.38% | – |
| CCN(CC)CCCNC(=O)CSc1nc2nc(C)c(Cc3ccccc3C)c(C)n2n1 | inactive: -26.8% | – |
| CC(C)(C)c1[nH]nc2c1C(Cc1ccccc1)C(C#N)=C(N)O2 (stereo not drawn) | – | inconclusive [inhibitor, single point] |
| CCN1CCN(CCOc2ccccc2OCc2ccccc2)CC1 | – | inconclusive [inhibitor, single point] |
| CCOC(=O)C1C(C(=O)OC)=C(c2ccc(F)cc2)c2ccccc2N1S(=O)(=O)C(F)(F)F (stereo not drawn) | – | inconclusive [inhibitor, partial curve] |
| Cc1cc2cc(C(c3nnnn3C(C)(C)C)N(Cc3ccco3)CC3CCCO3)c(=O)[nH]c2cc1C (stereo not drawn) | – | inconclusive [inhibitor, single point] |
| FC(F)(F)c1ccc(Cl)c(NC(=S)N/N=C/c2ccccc2C(F)(F)F)c1 | – | inconclusive [inhibitor, single point] |
| COc1ccc(-n2nc(C(=O)NCCCOC(C)C)c3c4ccccc4n(C)c3c2=O)cc1 | inconclusive: -31.1% [inhibitor] | – |
| O=[N+]([O-])c1ccc(N2CCN(S(=O)(=O)c3ccc(Cl)cc3)CC2)cc1NCc1cccnc1 | – | inconclusive [inhibitor, single point] |
| O=C(Nc1nnc(-c2cccs2)o1)c1cc(-c2ccccc2)nc2ccccc12 | – | active: 13 µM |
| COc1ccc(CNc2nc3c(-c4ccc(C)cc4)nnn3c3ccccc23)cc1 | inactive: -25.9% | – |
| Cc1nonc1CN(C)C(=O)CC1C(=O)NCCN1Cc1cccc(C(F)(F)F)c1 (stereo not drawn) | inactive: -11.6% | – |
| Brc1ccc2c(c1)[C@H]1OCC[C@H]1[C@@H](c1cccs1)N2 | – | inconclusive [inhibitor, single point] |
| COc1ccc(/C=C/C(=O)N2CCC(c3ccccc3)C2)cc1 (stereo not drawn) | – | inconclusive [inhibitor, single point] |
| CCC(=O)N1CCc2cc(Br)cc(S(=O)(=O)CCC(=O)N(C)c3cccc(C)c3)c21 | – | inconclusive [inhibitor, single point] |
| COc1cc(C=O)c(-c2c(C=O)cc(OC)c3c2OCO3)c2c1OCO2 | – | inconclusive [inhibitor, single point] |
| Fc1ccccc1N1CCN(c2ncnc3c2nc2n3CCCCC2)CC1 | – | inconclusive [inhibitor, partial curve, poor fit] |
| CC1CCCN(S(=O)(=O)c2ccc(NC(=O)Cn3nnc(-c4ccccc4F)n3)cc2)C1 (stereo not drawn) | – | inconclusive [inhibitor, single point] |
| COc1ccc(C2C(=O)N(C3CCC(C)CC3)CC(=O)N2C2CCCCC2)cc1OC (stereo not drawn) | – | inconclusive [inhibitor, single point] |
